Data as given in the RNAGym collection of RNA variant scans (doi:10.1093/nar/gkz1192).
Read counts are not given, so values of variants with three or more changes are uncertain.

B1: CPEB3 Ribozyme (parent)
chain: UAACAGGGGGCCACAGCAGAAGCGUUCACGUCGCAGCCCCUGUCAGAUUCUGGUGAAUCUGCGAAUUCUGCUGUAUAUCUC

Variants of: B1
Assay: self-cleavage, relative activity (ratio to wild type); higher = more cleavage; in vitro, sequencing
Summary of the method: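 Libraries of CPEB3 self-cleaving ribozyme mutants came from rounds of error-prone PCR and carried barcodes, which DNA sequencing matched to variants. In vitro transcription used T7 RNA polymerase at 37°C for 5 hours, with a further 15 min in DNase I before EDTA stopped the reaction; the ribozymes cleaved during both steps. The RNA was reverse transcribed with template switching and sequenced on Illumina. Relative activity is the cleaved/total read fraction of a variant divided by that of the unmutated ribozyme, averaged over three batches with at least 5 reads.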

Variant | self-cleavage
UAACAGGGGGCCACAGCAGAAGCGUCCACGUCGCUGCCCCUGCCAGAUUCUGGUGGAUCAGCGAAUUCUGCUGUAUUUCUC [U26C A35U U43C A56G U60A A77U] | 0.07
UAACAGGGGGCCACAGCAGAAGCGUCCACGUCGCAGCCCCUGUCUGAUCCUGGUGAAUCUGCGGAUUCUGCUGUAUAUCUC [U26C A45U U49C A64G] | 0.13
UAACAGGGGGCCACAGCAGAAGCGUCCACGUCGCUGCCCCUGUCAGAUUCUGGUGAAUCUGCGAAUUCUGCUGUAUAUCAC [U26C A35U U80A] | 0.14
UAACAGGGGGCCACAGCAGAAGCGUCCACGUCGCGGCCCCCGUCAGAUUCAGGUGAAUCUGCGAGUUCUGCUGUAUAUCUC [U26C A35G U41C U51A A65G] | 0.37
UAACAGGGGGCCACAGCAGAAGCGUCCGCGUCGCAGCCCCUGUCAGAUUCUGGAGAACCCGCGAAUUCUGCUGUAUAUAUC [U26C A28G U54A U58C U60C C79A] | 0.07
UAACAGGGGGCCACAGCAGAAGCGUCCACGUCGCCGCCCCUGUCGGAUACUGGUGAAACAGCGAAUUCUGCUGUAUAUCUC [U26C A35C A45G U49A U58A U60A] | 0.13
UAACAGGGGGCCACAGCAGAAGCGUCCACGUCGCGGCCCCUGUCAGAUUCUGGUGAAUCUGCGAACUCUGCUGUAUAUCAC [U26C A35G U66C U80A] | 0.64
UAACAGGGGGCCACAGCAGAAGCGUCCACGUCGCAGCCCCUGUCGGAUACUGGUGAAUCUGCGAAUUCUGCUGUAUAUCUC [U26C A45G U49A] | 0.06
UAACAGGGGGCCACAGCAGAAGCGUCCACGUCGCAGCCCCUGUCGGAUCCUGGUGAAUCUGCGAAUUCUGCUGUAUAUCUC [U26C A45G U49C] | 0.18
UAACAGGGGGCCACAGCAGAAGCGUCCACGUCGCAGCCCCUGUCGGAUUCAGGCGAAUCUGCGAAUUCCGCCGUAUAUCUC [U26C A45G U51A U54C U69C U72C] | 0.09
UAACAGGGGGCCACAGCAGAAGCGUCCACGUCGCUGCCCCUGUCGGAUUCUGGUGAAUCUGCGAAUUCUGCUGUAUGUCAC [U26C A35U A45G A77G U80A] | 0.26
UAACAGGGGGCCACAGCAGAAGCGUCCACGUCGCAGCCCCUGUCUGAUUCUGGUGAAUCUGCAAAUUCUGCUGUGUAUCUC [U26C A45U G63A A75G] | 0.06
UAACAGGGGGCCACAGCAGAAGCGUCCUCGUCGCAGCCCCUGUCAGACUCUGGCGAAUCUGCGAAUUCUGCGGUAUAUCUC [U26C A28U U48C U54C U72G] | 0.16
UAACAGGGGGCCACAGCAGAAGCGUCCACGUCGCUGCCCCGGUCUGAUGCUGGCGAAUCUGCGAAUUCUGCUGUAUAUCUA [U26C A35U U41G A45U U49G U54C C81A] | 0.05
UAACAGGGGGCCACAGCAGAAGCGUCCGCGUCGCAGCCCCUGUCAGAUACUGGCGAAUCUGCGAAUUCUGCUGUAGAUCUC [U26C A28G U49A U54C U76G] | 0.09
UAACAGGGGGCCACAGCAGAAGCGUCCACGUCGCUGCCCCUGUCAGAUUCUGGUGAAUCCGCGAAUUCUACUGUAUAUUUC [U26C A35U U60C G70A C79U] | 0.07
UAACAGGGGGCCACAGCAGAAGCGUCCUCGUCGCGGCCCCUGUCAGACUCUGGUGAAUCUGCGAAUGCUGCUGUAUAUCUC [U26C A28U A35G U48C U67G] | 0.21

Variant | self-cleavage
UAACAGGGGGCCACAGCAGAAGCGUCCUCGUCGCAGCCCCUGUCAGAUUCUGGAGAAUCUGCGAAUUCAGCUGCAUAUCUC [U26C A28U U54A U69A U74C] | 0.12
UAACAGGGGGCCACAGCAGAAGCGUCCACGUCGCAGCCCCUGUCGGAUUCUGGUGAAUCUGCGUAUUCUGCUGAAUAUCUC [U26C A45G A64U U74A] | 0.05
UAACAGGGGGCCACAGCAGAAGCGUCCACGUCGCGGCCCCCGUCAGAUUCUGGUGAAUCUGCGAAUUCUGCUGUAUAUCUC [U26C A35G U41C] | 0.64
UAACAGGGGGCCACAGCAGAAGCGUCCUCGUCGCAGCCCCUGUCAGAUUCUGGUGAAUCCGCGAAUUCUGCUGUAUACCUC [U26C A28U U60C U78C] | 0.18
UAACAGGGGGCCACAGCAGAAGCGUCCUCGCCGCUGCCCCUGUCAGAUUCUGGUGAGUCUGCGUAUUCUGCUGAAUAUCUC [U26C A28U U31C A35U A57G A64U U74A] | 0.06
UAACAGGGGGCCACAGCAGAAGCGUCCUCGUCGCAGCCCCAGUCAGAUUCUGGUGAAUCUGCGAAUUCUGCUGUAUAUCUC [U26C A28U U41A] | 0.11
UAACAGGGGGCCACAGCAGAAGCGUCCUCGUCGCAGCCCCUGUCAGAUUCUGGUGGAUCUGCGAAUUCUGCUGUAUAUCUC [U26C A28U A56G] | 0.27
UAACAGGGGGCCACAGCAGAAGCGUCCGCGUCGCAGCCCCUGUCAGACUCUGGUGAAUCUGCGAAUUCUGCUGCAUAUCUC [U26C A28G U48C U74C] | 0.3
UAACAGGGGGCCACAGCAGAAGCGUCCACGUCGCAGCCCCUGUCUGAUUCUGGUGAAUCUGCGAAUUCUGCUGUAUGUCUC [U26C A45U A77G] | 0.26
UAACAGGGGGCCACAGCAGAAGCGUCCACGUCGCAGCCCCUGUCGGUUCCUGGUGAAUCCGCGAGUUCUGCUGCAUAUCUC [U26C A45G A47U U49C U60C A65G U74C] | 0.17
UAACAGGGGGCCACAGCAGAAGCGUCCUCGUCGCAGCCCCUGUCAGAUUCUGGUGAAUCUGCGAAUUCUGCUGUAUUUCCC [U26C A28U A77U U80C] | 0.09
UAACAGGGGGCCACAGCAGAAGCGUCCACGUCGCAGCCCCUGUCGGAUUCUGGUGAAUCUGCGAAUCCUGCGGUAUAUCUC [U26C A45G U67C U72G] | 0.08
UAACAGGGGGCCACAGCAGAAGCGUCCACGUCGCAGCCCCUGUCGGAUUCUGGUGAAUCUGCGAAUUCUGCUGUAUAUAUC [U26C A45G C79A] | 0.24
UAACAGGGGGCCACAGCAGAAGCGUCCGCGUCGCAGCCCCUGUCAGAUUCUGGUGAAUCUGCGAAUUCAGCUGUACAUCUC [U26C A28G U69A U76C] | 0.2
UAACAGGGGGCCACAGCAGAAGCGUCCGCGUCGCAGCCCCUGUCAGAUUCUGGUGAAUCUGCGAAUUCUGCUGUAUACCUC [U26C A28G U78C] | 0.18
UAACAGGGGGCCACAGCAGAAGCGUCCACGUCGCUGCCCCCGUCAGAUCCUGGUGAAUCUGCGAAUUCUGCUGUAUAUCUC [U26C A35U U41C U49C] | 0.2
UAACAGGGGGCCACAGCAGAAGCGUCCUCGUCGCAGCCCCUGUCAGACUCUGGUGAAUCUGCGAAUCCUGCUGUAUAUCUC [U26C A28U U48C U67C] | 0.32
